PubChem BioAssay AID1345082 (National Center for Advancing Translational Sciences (NCATS), 2018)
Screen size: about 94,000 compounds; about 4,000 (4.3%) were called active. Inconclusive means that the source gave no clear call. Such entries were picked first, then a sample of the others. Calls come from the whole dose curve; as a rule, active = well fitted inhibition curve with a large enough effect; inconclusive = small, poorly fitted or top-dose-only effect; inactive = no such curve, though single readings can be large or run the other way. Where the call is inconclusive, the potency comes from a doubtful curve fit.
% is set by controls: 0 for no effect and ±100 for the full control effect; potency is the fitted concentration of half-maximal effect; tags give direction and shape of the fitted curve.

Test: Cytotoxic Profiling in NIH 3T3 Cell Line of Diverse Libraries Using Quantitative High-Throughput Screening; note: nearly all actives have a fitted effect of over 55% in size
Conditions: NIH 3T3 viability, CellTiter-Glo ATP luminescence, 48-72 h; activity change, negative = cytotoxicity: at 96.7 µM (top of the series) unless noted; series mostly up to 96.7 µM
In short: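 Mouse fibroblast NIH 3T3 cells, 400 per well, received compound via pintool and were incubated for 48 or 72 hr prior to CellTiter-Glo ATP luminescence measurement.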
For O=C1Nc2ccc(-c3ccc(Cl)cc3)cc2C(=O)N2CCN(C(=O)C3CCCCC3)C[C@H]12, the Potency was inconclusive: 44.7 µM [inhibitor, partial curve, poor fit]. In the case of O=C(Nc1ccc(F)cc1)N1CC[C@H]2COC(=O)N2c2cc(F)ccc2C1, the Potency is reported as inconclusive: 112 µM [inhibitor, partial curve, poor fit]. In the case of O=C(C[C@H]1NC(=O)c2ccccc2NC1=O)Nc1nc(-c2cccs2)cs1, the Potency is reported as inconclusive: 35.5 µM [inhibitor, partial curve]. In the case of Cc1ccc(-c2cn3c(n2)CO[C@@H](CNC(=O)c2ccc(Cl)cc2)C3)cc1, the Potency is reported as inconclusive: 89.1 µM [inhibitor, partial curve]. For COc1ccc(CCc2nc3nccc(-c4ccccn4)n3n2)cc1, the Potency was inconclusive: 70.8 µM [inhibitor, partial curve, poor fit]. In the case of CC(=O)N1CC(C(=O)NCc2ccccc2F)CC(c2cccc(C)c2)C1 (stereo not given), the Potency is reported as inconclusive: 56.2 µM [inhibitor, partial curve, poor fit]. For O=C(O)C1(Oc2ccc3ccccc3c2)CCN(c2ncnc3nc[nH]c23)CC1, the “activity change, negative = cytotoxicity” value was inactive: -1.9%. With Cc1cc(-c2ccc(F)c(C(N)=O)c2)cc(C(C)(C)C)c1 the Potency was inconclusive: 50.1 µM [inhibitor, partial curve, poor fit]. In the case of O=C1NCCCCCCN(Cc2ccncc2)[C@@H]2CN(Cc3ccncc3)CC[C@@H]12, the “activity change, negative = cytotoxicity” value is reported as inactive: -25.7%. For O=C1CCN(S(=O)(=O)c2ccccc2)CCCN(C(=O)CC2CCCC2)CCN1, the “activity change, negative = cytotoxicity” value was inactive: -17.2%. For CN(C)Cc1ccc(-c2cc3c(ccn3C)c(C(=O)NCc3cccnc3)n2)cc1, the Potency was inconclusive: 20 µM [inhibitor, full curve, poor fit]. In the case of Cc1ccc(Nc2ccnc(N3CCN(C(=O)c4ccccc4Cl)CC3)n2)cc1, the Potency is reported as inconclusive: 44.7 µM [inhibitor, partial curve, poor fit]. For Cc1nn(-c2ccccc2)c2c1C(C)N(CC1CN([S+](=O)([O-])c3ccccc3)C1)C2=O (stereo not given), the “activity change, negative = cytotoxicity” value was inactive: -33.4%. With COCCCNC(=O)c1cnc2n[nH]c(-c3ccc(OC)cc3C)c2n1 the Potency was inconclusive: 3.55 µM [inhibitor, full curve, poor fit]. With Cc1ccc(C(=O)N2CCN(c3ccc4ncc(-c5cccc(C(F)(F)F)c5)n4n3)CC2)cc1 the “activity change, negative = cytotoxicity” value was inactive: -29.9%. For O=C(NC1CCCC1)N1CCC2(CC1)CC(N1CCOCC1)CCO2 (stereo not given), the “activity change, negative = cytotoxicity” value was inactive: 4.51%. In the case of CN1c2cc(C(=O)N3CCN(c4cccc(Cl)c4)CC3)ccc2C(=O)N2CCCCC21 (stereo not given), the Potency is reported as inconclusive: 50.1 µM [inhibitor, partial curve, poor fit]. For Cc1cccc(OCC(=O)N2CCC3(CC2)NC(=O)N(Cc2ccc(F)cc2)C3=O)c1, the Potency was inconclusive: 50.1 µM [inhibitor, partial curve, poor fit]. In the case of O=C1NCCCCCN(CC2CCCCC2)[C@H]2CCC[C@@H]12, the Potency is reported as inconclusive: 50.1 µM [inhibitor, partial curve, poor fit]. In the case of COc1ccc(OC)c(CN2CCOc3ccc(C(=O)NCc4ccc(C)cc4)cc3C2)c1, the Potency is reported as inconclusive: 70.8 µM [inhibitor, single point]. For O=C(NCc1ccc(F)cc1)C1CCCN1Cc1ccc(-c2cncnc2)cc1 (stereo not given), the Potency was inconclusive: 44.7 µM [inhibitor, partial curve, poor fit]. In the case of O=C(c1ccccn1)N1CC(Oc2ccc(F)c(F)c2)C1, the “activity change, negative = cytotoxicity” value is reported as inactive: -29% [at 138 µM]. With CS(=O)(=O)Nc1ccc(C2(C(=O)N3CCN(c4ccccc4)CC3)CCCCC2)cc1 the Potency was inconclusive: 70.8 µM [inhibitor, single point]. In the case of CNC(=O)c1cc(C)nc2onc(C3CCCN3C(=O)c3cccnc3)c12 (stereo not given), the “activity change, negative = cytotoxicity” value is reported as inactive: 0.677%. In the case of CCN1CCN(C(=O)c2cc(-c3cccc(C(F)(F)F)c3)nc3c2cnn3C)CC1, the Potency is reported as active: 31.6 µM. In the case of CCc1nc(CC)n2ccn(Cc3ccc(OC)cc3)c(=O)c12, the Potency is reported as inconclusive: 11.2 µM [inhibitor, full curve, poor fit]. In the case of COC(=O)NC1CCN(c2nccc(Nc3ccccc3Cl)n2)CC1, the Potency is reported as inconclusive: 44.7 µM [inhibitor, partial curve]. In the case of COc1ccc(-c2cc(N3CCC(NC(=O)C4COc5ccccc5O4)CC3)n[nH]2)cc1 (stereo not given), the Potency is reported as inconclusive: 44.7 µM [inhibitor, partial curve]. For O=C(NC1CCCN(c2cc(-c3ccccc3)[nH]n2)C1)c1ccc(Br)o1 (stereo not given), the Potency was inconclusive: 44.7 µM [inhibitor, partial curve, poor fit]. For CN1CCC(N2C[C@@H]3C[C@H]2C(=O)N(Cc2cccnc2)c2ccccc2O3)CC1, the “outcome” value was “inactive [at 138 µM]”. For Cc1ccc(CN2C[C@@H]3C(=O)N(Cc4ccc5c(c4)OCO5)C(=O)[C@@H]3C2)cc1C, the Potency was inconclusive: 50.1 µM [inhibitor, partial curve, poor fit]. With CC(C(=O)NCCc1ccccc1)N1C(=O)COc2ccc(C(=O)COc3cccc(Cl)c3)cc21 (stereo not given) the Potency was inconclusive: 17.8 µM [inhibitor, full curve, poor fit]. In the case of CCN1c2cc(C(=O)Nc3ccccc3C(=O)OC)ccc2C(=O)N2CCCCCC21 (stereo not given), the Potency is reported as active: 20 µM. In the case of c1ccc(-c2noc(-c3cncnc3N3CCSCC3)n2)cc1, the “activity change, negative = cytotoxicity” value is reported as inactive: -15.1%. With Cc1ccc(NC(=O)N2CCCC(c3noc(COc4ccccc4)n3)C2)c(C)c1 (stereo not given) the Potency was inconclusive: 44.7 µM [inhibitor, partial curve, poor fit]. For CN1CCC2(Cc3ccccc3CN(C(=O)c3cccc(Cl)c3)C2)C1 (stereo not given), the Potency was inconclusive: 50.1 µM [inhibitor, partial curve, poor fit]. With Cc1cc(C)cc(CCC(=O)N2CCN(c3ccc(C#N)cn3)CC2)c1 the Potency was inconclusive: 50.1 µM [inhibitor, partial curve, poor fit]. With COc1ccc(CN2CC(O)CN([S+](=O)([O-])c3ccc(F)cc3)CC2=O)cc1 (stereo not given) the “activity change, negative = cytotoxicity” value was inactive: -29.9%. In the case of CC(C)Cc1cc(CC2(NC3CCOCC3)COC2)no1, the “outcome” value is reported as “inactive [at 138 µM]”. With O=c1c2c(n(Cc3ccccc3)n1-c1ccccc1)CN(Cc1cccnc1)CC2 the Potency was inconclusive: 20 µM [inhibitor, full curve, poor fit]. In the case of COCc1cc(C[C@@H]2CC[C@H](O)[C@@H](CNC(=O)N3CCOCC3)O2)no1, the “activity change, negative = cytotoxicity” value is reported as inactive: 0.655% [at 138 µM]. In the case of CCNC(=O)N1CCc2nc(-c3ccccc3)[nH]c2C1, the “activity change, negative = cytotoxicity” value is reported as inactive: -22.2%. For CCOC(=O)c1nccn1Cc1nc(-c2sccc2C)oc1C, the Potency was inconclusive: 31.6 µM [inhibitor, partial curve, poor fit]. With O=C1NC2(CCN(Cc3ccc(OC(F)(F)F)cc3)C2)COc2ccccc21 (stereo not given) the Potency was inconclusive: 50.1 µM [inhibitor, partial curve, poor fit]. In the case of O=C(NCc1cccc(Cl)c1)c1ccc(N2CC3CC(C2)[C@H]2CCCC(=O)N2C3)nc1 (stereo not given in full), the Potency is reported as inconclusive: 31.6 µM [inhibitor, full curve]. In the case of CCn1ccnc1CN1CCCC(CNC(=O)c2ccc(-c3ccccc3)cc2)C1 (stereo not given), the Potency is reported as inconclusive: 56.2 µM [inhibitor, partial curve, poor fit]. With CC(=O)Nc1ccc(S(=O)(=O)N2CCCC(N(C)CCc3ccccn3)C2)cc1 (stereo not given) the Potency was inconclusive: 22.4 µM [inhibitor, full curve, poor fit]. With Cc1ccc(C(=O)N2CCC3(CC2)SCC(=O)N3c2ccc(Cl)cc2)cc1[N+](=O)[O-] the Potency was inconclusive: 35.5 µM [inhibitor, partial curve, poor fit]. With N#Cc1cc(CN2CCCC(C(=O)Nc3cccc(-c4ccc(F)cc4)c3)C2)c[nH]1 (stereo not given) the Potency was active: 17.8 µM. For Cc1cc(C)cc(-c2ccc(CN3CCCC(NC(=O)Cc4ccccn4)C3)cc2)c1 (stereo not given), the Potency was active: 35.5 µM. With COC1CCN(C(=O)c2cnc3c(c2)N(Cc2ccccc2)CCC3)CC1 the Potency was inconclusive: 89.1 µM [inhibitor, partial curve, poor fit]. With O=C1NCN(Cc2ccc(Cl)cc2)C12CCN(Cc1ccccc1)CC2 the Potency was inconclusive: 11.2 µM [inhibitor, full curve, poor fit]. For Cc1cccc(-c2cccc(CN3CCCC(C(=O)NCCCc4ccccc4)C3)c2)c1 (stereo not given), the Potency was active: 39.8 µM. For COc1ccc(C(=O)N2CCCC3(C2)C(=NC2CCCCC2)NC(=O)N3c2cc(F)cc(F)c2)cc1 (stereo not given), the “activity change, negative = cytotoxicity” value was inactive: -8.2%. In the case of Cc1cccc(S(=O)(=O)N2CCCN(C(=O)C3CC3)c3ccccc32)c1, the Potency is reported as inconclusive: 44.7 µM [inhibitor, partial curve]. In the case of COc1ccc(-c2cc(C(=O)N3CCCC(C)C3)c3cnn(C)c3n2)cc1 (stereo not given), the Potency is reported as inconclusive: 50.1 µM [inhibitor, partial curve, poor fit]. With CC(CNC(=O)c1noc(-c2ccc3c(c2)OCO3)n1)c1ccccc1 (stereo not given) the Potency was inconclusive: 44.7 µM [inhibitor, partial curve, poor fit]. In the case of Cc1cc(C)cc(-c2[nH]nc3ncc(-c4ccsc4)nc23)c1, the Potency is reported as active: 25.1 µM. With O=C1NCCCCCN(C(=O)NCCc2ccccc2)[C@H]2CCC[C@@H]12 the “activity change, negative = cytotoxicity” value was inactive: -18.9%. With O=C1C(Oc2ccc(F)cc2)C2(CCCCC2)N1Cc1ccc(F)cc1 (stereo not given) the Potency was active: 25.1 µM. With Nc1nc(C2CC(NC(=O)Cc3ccc4c(c3)OCO4)C2)cc(=O)[nH]1 (stereo not given) the “activity change, negative = cytotoxicity” value was inactive: 3.58%. With O=C(c1ccsc1)N1CC(c2noc(C3CCCN3CC3CC3)n2)C1 (stereo not given) the “outcome” value was “inactive”. In the case of O=C(Cc1cccs1)N1CCCCCC1c1nnc(-c2ccccc2)o1 (stereo not given), the “activity change, negative = cytotoxicity” value is reported as inactive: -16.5%. In the case of O=C(NC[C@H]1Cn2c(-c3ccc(F)cc3)cnc2CO1)c1ccc(Cl)cc1, the Potency is reported as inconclusive: 44.7 µM [inhibitor, partial curve, poor fit]. In the case of COCCN1C(=O)c2ccccc2C(C(=O)Nc2cc(C)ccc2OC)C12CCCCC2 (stereo not given), the “activity change, negative = cytotoxicity” value is reported as inactive: -15.6%.
